Reference: publication PMC1793994
Results are given in words; binding and its absence hold for the method and conditions named. In cells and extracts the contact can be indirect. Some binding calls cover weakened binding; strength is not graded here. Tags and fused reporters may be left off the sequences shown. Blank lines part the entries; values can stand above or below the binder they belong to.

Protein sequences, listed by entry. Tags and fused reporters are not part of them.
UniProt Q13596: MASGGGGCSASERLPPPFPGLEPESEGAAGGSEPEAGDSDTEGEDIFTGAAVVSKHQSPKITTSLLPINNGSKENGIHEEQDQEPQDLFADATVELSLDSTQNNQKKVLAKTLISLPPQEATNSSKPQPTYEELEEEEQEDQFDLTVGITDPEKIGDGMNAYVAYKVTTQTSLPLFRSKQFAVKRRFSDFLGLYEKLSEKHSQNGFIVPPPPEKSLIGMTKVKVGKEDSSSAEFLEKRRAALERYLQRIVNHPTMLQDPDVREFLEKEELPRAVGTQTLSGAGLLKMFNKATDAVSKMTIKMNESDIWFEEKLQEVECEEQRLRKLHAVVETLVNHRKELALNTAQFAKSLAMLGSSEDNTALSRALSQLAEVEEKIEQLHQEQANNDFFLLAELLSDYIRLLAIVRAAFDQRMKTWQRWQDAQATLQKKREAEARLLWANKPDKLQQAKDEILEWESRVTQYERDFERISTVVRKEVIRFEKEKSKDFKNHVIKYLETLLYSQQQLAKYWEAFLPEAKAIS

Experiments:
Test in all cases: co-IP; HEK 293T co-transfected with one Myc-tagged and one GFP-tagged construct (2.5 μg each); lysis in 1% Triton X-100, 150 mM NaCl, 50 mM Tris-HCl pH 7.6; lysates rocked overnight at 4°C; 1 mg lysate, IP with 3 μg anti-Myc (9E10), anti-GFP immunoblot
Myc-EHD2 (human) = target: T1, Myc-EHD2 (human) (UniProt Q9NZN4)
T1 sequence: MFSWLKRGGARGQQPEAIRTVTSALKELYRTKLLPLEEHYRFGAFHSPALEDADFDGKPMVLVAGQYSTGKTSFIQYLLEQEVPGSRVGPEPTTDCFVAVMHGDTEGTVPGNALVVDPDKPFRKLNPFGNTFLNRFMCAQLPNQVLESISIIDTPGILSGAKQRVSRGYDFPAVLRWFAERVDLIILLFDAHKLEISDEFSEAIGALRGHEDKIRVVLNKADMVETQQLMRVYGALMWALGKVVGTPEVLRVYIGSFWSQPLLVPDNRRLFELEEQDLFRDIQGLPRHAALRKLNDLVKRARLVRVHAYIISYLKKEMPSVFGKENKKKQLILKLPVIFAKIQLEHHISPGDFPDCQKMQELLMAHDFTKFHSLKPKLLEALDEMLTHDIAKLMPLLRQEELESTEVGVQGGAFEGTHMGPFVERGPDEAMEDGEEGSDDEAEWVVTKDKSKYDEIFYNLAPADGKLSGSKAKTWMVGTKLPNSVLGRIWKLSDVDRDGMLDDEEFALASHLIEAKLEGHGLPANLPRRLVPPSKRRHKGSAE

Myc-EHD4 (human) = target: T2, Myc-EHD4 (human) (UniProt Q9H223)
T2 sequence: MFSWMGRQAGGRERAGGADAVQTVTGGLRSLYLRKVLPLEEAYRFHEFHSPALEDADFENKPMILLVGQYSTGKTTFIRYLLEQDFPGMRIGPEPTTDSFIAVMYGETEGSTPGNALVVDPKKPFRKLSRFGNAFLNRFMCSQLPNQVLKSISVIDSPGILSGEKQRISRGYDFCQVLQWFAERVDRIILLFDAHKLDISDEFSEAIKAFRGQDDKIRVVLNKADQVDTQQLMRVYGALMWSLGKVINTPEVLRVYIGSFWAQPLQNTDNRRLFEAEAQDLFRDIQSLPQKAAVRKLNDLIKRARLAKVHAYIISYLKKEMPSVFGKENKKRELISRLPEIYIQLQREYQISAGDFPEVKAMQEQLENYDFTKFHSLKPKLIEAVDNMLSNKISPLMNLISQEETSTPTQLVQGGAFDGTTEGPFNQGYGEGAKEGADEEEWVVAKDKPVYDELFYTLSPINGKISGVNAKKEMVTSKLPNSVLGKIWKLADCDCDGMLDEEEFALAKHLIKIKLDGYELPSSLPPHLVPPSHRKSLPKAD

[1] = target: Myc-sorting nexin-1 (SNX1) (UniProt Q13596)

B1: EHD2-GFP (protein, UniProt Q9NZN4 1-543)
chain: T1 sequence
- binding (Myc-EHD2 (human)): binds
- binding (Myc-EHD4 (human)): binds weakly

B3: EHD1-GFP (protein, UniProt Q9H4M9 1-534)
chain: MFSWVSKDARRKKEPELFQTVAEGLRQLYAQKLLPLEEHYRFHEFHSPALEDADFDNKPMVLLVGQYSTGKTTFIRHLIEQDFPGMRIGPEPTTDSFIAVMHGPTEGVVPGNALVVDPRRPFRKLNAFGNAFLNRFMCAQLPNPVLDSISIIDTPGILSGEKQRISRGYDFAAVLEWFAERVDRIILLFDAHKLDISDEFSEVIKALKNHEDKIRVVLNKADQIETQQLMRVYGALMWSLGKIINTPEVVRVYIGSFWSHPLLIPDNRKLFEAEEQDLFKDIQSLPRNAALRKLNDLIKRARLAKVHAYIISSLKKEMPNVFGKESKKKELVNNLGEIYQKIEREHQISPGDFPSLRKMQELLQTQDFSKFQALKPKLLDTVDDMLANDIARLMVMVRQEESLMPSQVVKGGAFDGTMNGPFGHGYGEGAGEGIDDVEWVVGKDKPTYDEIFYTLSPVNGKITGANAKKEMVKSKLPNTVLGKIWKLADVDKDGLLDDEEFALANHLIKVKLEGHELPADLPPHLVPPSKRRHE
- binding (Myc-EHD4 (human)): binds
- binding [1]: no binding

More lines, now with the values ahead:

- binding (Myc-EHD2 (human)): binds weakly
- binding (Myc-EHD4 (human)): binds
B2: EHD4-GFP (protein, UniProt Q9H223 1-541)
chain: T2 sequence

- binding (Myc-EHD2 (human)): binds weakly
- binding (Myc-EHD4 (human)): binds
B4: EHD3-GFP (protein, UniProt Q9NZN3-1 1-535)
chain: MFSWLGTDDRRRKDPEVFQTVSEGLKKLYKSKLLPLEEHYRFHEFHSPALEDADFDNKPMVLLVGQYSTGKTTFIRYLLEQDFPGMRIGPEPTTDSFIAVMQGDMEGIIPGNALVVDPKKPFRKLNAFGNAFLNRFVCAQLPNPVLESISVIDTPGILSGEKQRISRGYDFAAVLEWFAERVDRIILLFDAHKLDISDEFSEVIKALKNHEDKMRVVLNKADQIETQQLMRVYGALMWSLGKIVNTPEVIRVYIGSFWSHPLLIPDNRKLFEAEEQDLFRDIQSLPRNAALRKLNDLIKRARLAKVHAYIISSLKKEMPSVFGKDNKKKELVNNLAEIYGRIEREHQISPGDFPNLKRMQDQLQAQDFSKFQPLKSKLLEVVDDMLAHDIAQLMVLVRQEESQRPIQMVKGGAFEGTLHGPFGHGYGEGAGEGIDDAEWVVARDKPMYDEIFYTLSPVDGKITGANAKKEMVRSKLPNSVLGKIWKLADIDKDGMLDDDEFALANHLIKVKLEGHELPNELPAHLLPPSKRKVAE
